Results on 153 variants are retold here after a collection of fitness landscapes (doi:10.1016/j.celrep.2020.107928).

In all, about 81,000 sequences were measured (“one-hybrid fitness for binding parS DNA”: median about -0.17, highest 2% from about 0.51 on). Some of the results follow.

The chains are these.
B1: Caulobacter ParB omega fusion; a variant is named by its letters at X, in order, B8GW30 (parent)
chain: MESVVVGEPGMSEGRRGLGRGLSALLGEVDAAPAQAPGEQLGGSREAPIEILQRNPDQPRRTFREEDLEDLSNSIREKGVLQPILVRPSPDTAGEYQIVAGERAWRAAQRAGLKTVPIMVRELDDLAVLEIGIIENVQRADLNVLEEALSYKVLMEKFERTQENIAQTIGKSXSHVANXMRLLXLPDEVQSYLVSGELTAXHARAIAAAADPVALAKQIIEGGLSVRETEALARKAPNLSAGKSKGGRPPRVKDTDTQALESDLSSVLGLDVSIDHRGSTGTLTITYATLEQLDDLCNRLTRGI

This experiment covers variants of B1. Briefly: one-hybrid fitness for binding parS DNA (scaled: cognate 1, non-cognate 0); higher = stronger binding. Particulars: with parS DNA site. A digest of the protocol: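 Fitness here means the log change in variant-to-wild-type read ratio between plasmids sequenced before and after selection. That scale was set so cognate equals 1 and non-cognate equals 0. The selection was a bacterial one-hybrid screen of Caulobacter ParB libraries, four specificity codons randomised, in E. coli USO carrying a HIS3 reporter with the site 19 bp from the promoter, grown 48 hours at 37°C on M9-minus-histidine with 0.1 mM IPTG and 5 mM 3-AT.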
For QGDI, the “one-hybrid fitness for binding parS DNA” value is at most 0.2.
For the variant RPSP, the “one-hybrid fitness for binding parS DNA” value was at most 0.2.
The same measure for DVVT: at most 0.2; for KGWT: at most 0.2; for HPED: at most 0.2.
RIVP: the “one-hybrid fitness for binding parS DNA” value was at most 0.2.
As for ELDV, the “one-hybrid fitness for binding parS DNA” value was at most 0.2.
In the case of ARCL, the “one-hybrid fitness for binding parS DNA” value is at most 0.2.
As for RQIM, the “one-hybrid fitness for binding parS DNA” value is at most 0.2.
As for CVPG, the “one-hybrid fitness for binding parS DNA” value is at most 0.2.
With ALSY, the “one-hybrid fitness for binding parS DNA” value is at most 0.2.
For NNYL, the “one-hybrid fitness for binding parS DNA” value was at most 0.2.
HKSY: the “one-hybrid fitness for binding parS DNA” value is at most 0.2.
On to VVLP, for which the “one-hybrid fitness for binding parS DNA” value is at most 0.2.
The same measure for WRAV: at most 0.2; for PLWH: at most 0.2.
On to RAWS, for which the “one-hybrid fitness for binding parS DNA” value came to 1.05.
In the case of TPVF it was at most 0.2; in that of YITC, at most 0.2; in that of SMAK, at most 0.2.
With HSQW, the “one-hybrid fitness for binding parS DNA” value was at most 0.2.
With KGRR, the “one-hybrid fitness for binding parS DNA” value was at most 0.2.
For the variant WAPY, the “one-hybrid fitness for binding parS DNA” value is at most 0.2.
Consider QKFP, for which the “one-hybrid fitness for binding parS DNA” value was at most 0.2.
In the case of QMMF it was at most 0.2; in that of TNDF, at most 0.2.
Turning to QPFA, the “one-hybrid fitness for binding parS DNA” value is at most 0.2.
As for KYSV, the “one-hybrid fitness for binding parS DNA” value was at most 0.2.
The same measure for NIWT: at most 0.2; for LHWL: at most 0.2; for FWFG: at most 0.2.
For the variant VTHF, the “one-hybrid fitness for binding parS DNA” value was at most 0.2.
On to SLLY, for which the “one-hybrid fitness for binding parS DNA” value was at most 0.2.
For the variant TMRI, the “one-hybrid fitness for binding parS DNA” value is at most 0.2.
Take ERFA: the “one-hybrid fitness for binding parS DNA” value was at most 0.2.
As to VRYC, the “one-hybrid fitness for binding parS DNA” value was at most 0.2.
With PQVE, the “one-hybrid fitness for binding parS DNA” value is at most 0.2.
With CYMT, the “one-hybrid fitness for binding parS DNA” value was at most 0.2.
In the case of KNIL it was at most 0.2; in that of PIGS, at most 0.2; in that of KMPS, at most 0.2.
With RESN, the “one-hybrid fitness for binding parS DNA” value was at most 0.2.
In the case of GAGL it was at most 0.2; in that of VDHT, at most 0.2; in that of RIIN, 0.379.
For the variant QEVE, the “one-hybrid fitness for binding parS DNA” value was at most 0.2.
Take GDVT: the “one-hybrid fitness for binding parS DNA” value was at most 0.2.
QLCW: the “one-hybrid fitness for binding parS DNA” value was at most 0.2.
With PCMC, the “one-hybrid fitness for binding parS DNA” value is at most 0.2.
In the case of RHGR, the “one-hybrid fitness for binding parS DNA” value was at most 0.2.
For LYTY, the “one-hybrid fitness for binding parS DNA” value is at most 0.2.
ECRC: the “one-hybrid fitness for binding parS DNA” value is at most 0.2.
The same measure for RTTW: 0.239.
Take QNDC: the “one-hybrid fitness for binding parS DNA” value was at most 0.2.
For RQGS, the “one-hybrid fitness for binding parS DNA” value is 0.978.
For the variant PFAV, the “one-hybrid fitness for binding parS DNA” value is at most 0.2.
Take DAMR: the “one-hybrid fitness for binding parS DNA” value was at most 0.2.
Take TLAK: the “one-hybrid fitness for binding parS DNA” value was at most 0.2.
Regarding TQFR, the “one-hybrid fitness for binding parS DNA” value is at most 0.2.
Turning to ADVF, the “one-hybrid fitness for binding parS DNA” value was at most 0.2.
Take PQSS: the “one-hybrid fitness for binding parS DNA” value is at most 0.2.
Consider PCKT, for which the “one-hybrid fitness for binding parS DNA” value was at most 0.2.
For the variant QSRY, the “one-hybrid fitness for binding parS DNA” value was at most 0.2.
In the case of NPGR it was at most 0.2; in that of ALLV, at most 0.2.
On to RTLQ, for which the “one-hybrid fitness for binding parS DNA” value was at most 0.2.
For the variant EQAS, the “one-hybrid fitness for binding parS DNA” value is at most 0.2.
On to CNWT, for which the “one-hybrid fitness for binding parS DNA” value was at most 0.2.
With SFLA, the “one-hybrid fitness for binding parS DNA” value is at most 0.2.
In the case of LHFR it was at most 0.2.
For the variant PITF, the “one-hybrid fitness for binding parS DNA” value was at most 0.2.
RVYI: the “one-hybrid fitness for binding parS DNA” value is at most 0.2.
With CFYV, the “one-hybrid fitness for binding parS DNA” value is at most 0.2.
SDIC: the “one-hybrid fitness for binding parS DNA” value was at most 0.2.
ESTW: the “one-hybrid fitness for binding parS DNA” value was at most 0.2.
RKKG: the “one-hybrid fitness for binding parS DNA” value is 0.802.
As for MLET, the “one-hybrid fitness for binding parS DNA” value is at most 0.2.
Turning to GVVA, the “one-hybrid fitness for binding parS DNA” value was at most 0.2.
Consider SMTY, for which the “one-hybrid fitness for binding parS DNA” value is at most 0.2.
On to QVQH, for which the “one-hybrid fitness for binding parS DNA” value is at most 0.2.
The same measure for QQTE: at most 0.2; for PQHK: at most 0.2.
On to WVRA, for which the “one-hybrid fitness for binding parS DNA” value is at most 0.2.
On to RPED, for which the “one-hybrid fitness for binding parS DNA” value is at most 0.2.
In the case of WGNH, the “one-hybrid fitness for binding parS DNA” value was at most 0.2.
With TPHE, the “one-hybrid fitness for binding parS DNA” value was at most 0.2.
Turning to QKRF, the “one-hybrid fitness for binding parS DNA” value was at most 0.2.
In the case of HKVV it was at most 0.2; in that of AIKM, at most 0.2.
In the case of LHNV it was at most 0.2.
With QNGI, the “one-hybrid fitness for binding parS DNA” value is at most 0.2.
As for TEQT, the “one-hybrid fitness for binding parS DNA” value was at most 0.2.
For the variant LTCM, the “one-hybrid fitness for binding parS DNA” value was at most 0.2.
For the variant YSWC, the “one-hybrid fitness for binding parS DNA” value is at most 0.2.
As to EMLK, the “one-hybrid fitness for binding parS DNA” value is at most 0.2.
On to PTPK, for which the “one-hybrid fitness for binding parS DNA” value was at most 0.2.
The same measure for SHQQ: at most 0.2; for PYSK: at most 0.2.
Take RMTL: the “one-hybrid fitness for binding parS DNA” value is at most 0.2.
As for HHTD, the “one-hybrid fitness for binding parS DNA” value was at most 0.2.
Take RWCT: the “one-hybrid fitness for binding parS DNA” value amounted to 0.611.
The same measure for KTTC: at most 0.2; for HSQY: at most 0.2; for HMVI: at most 0.2.
As to YNKV, the “one-hybrid fitness for binding parS DNA” value was at most 0.2.
The same measure for TNPD: at most 0.2; for YNTT: at most 0.2; for GGLV: at most 0.2.
In the case of DTFC it was at most 0.2.
Consider FRVL, for which the “one-hybrid fitness for binding parS DNA” value is at most 0.2.
The same measure for SMGI: at most 0.2; for NPGS: at most 0.2.
Consider WIWG, for which the “one-hybrid fitness for binding parS DNA” value was at most 0.2.
Consider CPLD, for which the “one-hybrid fitness for binding parS DNA” value is at most 0.2.
As for SFQI, the “one-hybrid fitness for binding parS DNA” value was at most 0.2.
For the variant LFLG, the “one-hybrid fitness for binding parS DNA” value was at most 0.2.
In the case of RDYT it was at most 0.2.
WLLC: the “one-hybrid fitness for binding parS DNA” value was at most 0.2.
Take YMSS: the “one-hybrid fitness for binding parS DNA” value is at most 0.2.
The same measure for DWLL: at most 0.2.
GPWN: the “one-hybrid fitness for binding parS DNA” value is at most 0.2.
As for DWAG, the “one-hybrid fitness for binding parS DNA” value was at most 0.2.
As for KHIG, the “one-hybrid fitness for binding parS DNA” value is at most 0.2.
With RAAK, the “one-hybrid fitness for binding parS DNA” value was at most 0.2.
The same measure for NRLY: at most 0.2; for DNEC: at most 0.2; for TRNR: at most 0.2.
Take YTRE: the “one-hybrid fitness for binding parS DNA” value was at most 0.2.
For the variant LSRP, the “one-hybrid fitness for binding parS DNA” value was at most 0.2.
In the case of NMTY, the “one-hybrid fitness for binding parS DNA” value was at most 0.2.
As for LPLH, the “one-hybrid fitness for binding parS DNA” value is at most 0.2.
Take WSVC: the “one-hybrid fitness for binding parS DNA” value is at most 0.2.
The same measure for CLRS: at most 0.2; for GWRK: at most 0.2.
The same measure for QTIC: at most 0.2.
For TMMS, the “one-hybrid fitness for binding parS DNA” value was at most 0.2.
Take IYNM: the “one-hybrid fitness for binding parS DNA” value is at most 0.2.
As to QGVP, the “one-hybrid fitness for binding parS DNA” value is at most 0.2.
For CKPS, the “one-hybrid fitness for binding parS DNA” value was at most 0.2.
GHNG: the “one-hybrid fitness for binding parS DNA” value was at most 0.2.
The same measure for QNPI: at most 0.2.
As to SFLS, the “one-hybrid fitness for binding parS DNA” value was at most 0.2.
For the variant RMMG, the “one-hybrid fitness for binding parS DNA” value was 0.985.
With HPDE, the “one-hybrid fitness for binding parS DNA” value is at most 0.2.
As for TQHL, the “one-hybrid fitness for binding parS DNA” value is at most 0.2.
For the variant ALFA, the “one-hybrid fitness for binding parS DNA” value is at most 0.2.
As for AITV, the “one-hybrid fitness for binding parS DNA” value is at most 0.2.
Take PCKG: the “one-hybrid fitness for binding parS DNA” value is at most 0.2.
Consider EHDC, for which the “one-hybrid fitness for binding parS DNA” value was at most 0.2.
On to TSGE, for which the “one-hybrid fitness for binding parS DNA” value is at most 0.2.
CGYF: the “one-hybrid fitness for binding parS DNA” value was at most 0.2.
Turning to ARMM, the “one-hybrid fitness for binding parS DNA” value was at most 0.2.
Consider ADHG, for which the “one-hybrid fitness for binding parS DNA” value was at most 0.2.
